{"source": "paper PMC4336329", "about": "(PLoS ONE, 2015)", "note": "Among all 310,000 compounds or so, about 14,000 (4.5%) showed an effect of 50% or more. The effect is printed as a negative number. The list shows a part of the results.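 Further: peak tail current of the secondary pulse compared with the same well before compound.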", "data": [{"molecular_target": "human ether-à-go-go-related gene (hERG) potassium channel (human, UniProt Q12809)", "sequence (Q12809 whole entry, looked up)": "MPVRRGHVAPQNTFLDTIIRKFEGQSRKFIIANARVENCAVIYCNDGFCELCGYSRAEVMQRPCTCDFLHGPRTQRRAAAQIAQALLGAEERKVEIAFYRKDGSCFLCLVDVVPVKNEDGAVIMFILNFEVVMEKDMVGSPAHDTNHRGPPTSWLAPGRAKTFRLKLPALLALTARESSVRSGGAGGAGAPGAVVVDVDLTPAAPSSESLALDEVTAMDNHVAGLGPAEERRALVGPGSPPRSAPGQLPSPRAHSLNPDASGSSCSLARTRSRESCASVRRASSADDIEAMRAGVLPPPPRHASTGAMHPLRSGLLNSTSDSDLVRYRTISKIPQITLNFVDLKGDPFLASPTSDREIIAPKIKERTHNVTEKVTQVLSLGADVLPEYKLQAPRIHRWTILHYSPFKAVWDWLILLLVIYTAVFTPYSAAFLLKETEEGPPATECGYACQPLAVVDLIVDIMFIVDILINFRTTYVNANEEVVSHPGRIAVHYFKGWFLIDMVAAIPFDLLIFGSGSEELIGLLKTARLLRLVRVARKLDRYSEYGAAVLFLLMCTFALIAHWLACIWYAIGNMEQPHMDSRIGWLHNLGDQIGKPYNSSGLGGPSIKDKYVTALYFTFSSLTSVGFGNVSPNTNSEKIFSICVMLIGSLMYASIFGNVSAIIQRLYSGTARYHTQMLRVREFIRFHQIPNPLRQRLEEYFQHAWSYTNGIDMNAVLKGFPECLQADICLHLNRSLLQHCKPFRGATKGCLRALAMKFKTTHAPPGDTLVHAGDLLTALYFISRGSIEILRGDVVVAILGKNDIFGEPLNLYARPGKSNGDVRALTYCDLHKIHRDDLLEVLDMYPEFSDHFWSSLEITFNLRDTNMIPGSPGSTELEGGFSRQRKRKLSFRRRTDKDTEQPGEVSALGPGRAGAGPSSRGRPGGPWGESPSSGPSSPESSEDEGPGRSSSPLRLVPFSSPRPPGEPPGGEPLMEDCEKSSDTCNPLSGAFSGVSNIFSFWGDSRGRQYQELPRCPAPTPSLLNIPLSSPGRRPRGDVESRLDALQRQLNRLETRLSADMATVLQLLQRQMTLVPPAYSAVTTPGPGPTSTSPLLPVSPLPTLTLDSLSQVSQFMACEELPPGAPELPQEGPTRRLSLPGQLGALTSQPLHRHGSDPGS", "test": "primary screen, population patch clamp on CHO cells stably expressing hERG", "units": {"hERG current change (%, negative = inhibition) at 10uM": "%"}, "values": [{"smiles": "N/C(=N\\c1nc(CSc2ccccn2)cc(=O)[nH]1)Nc1ccc(Cl)cc1Cl", "hERG current change (%, negative = inhibition) at 10uM": 21.9}, {"smiles": "CC(C)CN(C(=O)CN1CCN(c2ccc([N+](=O)[O-])cc2)CC1)c1c(N)n(CC(C)C)c(=O)[nH]c1=O", "hERG current change (%, negative = inhibition) at 10uM": -36.7}, {"smiles": "CCCC(c1nnnn1Cc1ccc(OC)cc1)N1CCC(C(N)=O)CC1.Cl", "note": "(centres unmarked)", "hERG current change (%, negative = inhibition) at 10uM": -14.6}, {"smiles": "Cc1cc(C2(c3ccc(O)c(C)c3)C(=O)N(C)c3ccc(Br)cc32)ccc1O", "hERG current change (%, negative = inhibition) at 10uM": -2.28}, {"smiles": "COC(=O)c1sc2nc(CN3CCOCC3)nc(N3CCOCC3)c2c1C", "hERG current change (%, negative = inhibition) at 10uM": 1.53}, {"smiles": "CN(C)C(=O)c1cc(C(=O)c2ccc(F)cc2F)c[nH]1", "hERG current change (%, negative = inhibition) at 10uM": 14.6}, {"smiles": "Cn1cccc1C(=O)NCCc1ccccc1", "hERG current change (%, negative = inhibition) at 10uM": 6.72}, {"smiles": "O=[N+]([O-])c1ccc(S(=O)(=O)NCC(c2cccnc2)N2CCc3ccccc3C2)cc1", "note": "(centres unmarked)", "hERG current change (%, negative = inhibition) at 10uM": -35.6}, {"smiles": "Brc1ccc(-c2ccc(C3Nc4cccc5cccc(c45)N3)o2)cc1", "hERG current change (%, negative = inhibition) at 10uM": 6.67}, {"smiles": "C=CCn1c(-c2cccnc2Cl)nc2ccccc21", "hERG current change (%, negative = inhibition) at 10uM": 8.48}, {"smiles": "COc1ccc(CN(C(=O)Cc2c[nH]c3ccccc23)C(C(=O)NC2CCCCC2)c2ccc(C)o2)cc1", "note": "(centres unmarked)", "hERG current change (%, negative = inhibition) at 10uM": -3.73}, {"smiles": "CCC(=O)N/N=C(\\C)CC(=O)Nc1cccc([N+](=O)[O-])c1", "hERG current change (%, negative = inhibition) at 10uM": 9.57}, {"smiles": "Cc1ccc(/C=C2/SC(=Nc3ccc(F)cc3)NC2=O)s1", "hERG current change (%, negative = inhibition) at 10uM": 23.4}, {"smiles": "Cc1cccc(OCCn2cccc2/C=C2/C(=O)NC(=O)N(Cc3ccco3)C2=O)c1", "hERG current change (%, negative = inhibition) at 10uM": 9.97}, {"smiles": "Clc1ccccc1CSc1nncn1NC/C=C/c1ccccc1", "hERG current change (%, negative = inhibition) at 10uM": -5.97}, {"smiles": "Cl.O=C(Nc1ncccc1Cl)C1COc2ccccc2O1", "note": "(centres unmarked)", "hERG current change (%, negative = inhibition) at 10uM": -15.2}, {"smiles": "COc1ccc(OC)c(NC(=S)N2CCC(C(O)(c3ccccc3)c3ccccc3)CC2)c1", "hERG current change (%, negative = inhibition) at 10uM": -3.48}, {"smiles": "CC(NC(=O)C1CCCC1)c1ccc2c(c1)OCCO2", "note": "(centres unmarked)", "hERG current change (%, negative = inhibition) at 10uM": -11.3}, {"smiles": "O=C(Nc1cc(S(=O)(=O)Nc2ccc(Cl)cc2)ccc1N1CCCCC1)c1ccc(F)cc1", "hERG current change (%, negative = inhibition) at 10uM": 8.86}, {"smiles": "COc1ccc(C(=O)Nc2ccc(C(=O)Nc3nccs3)cc2)cc1[N+](=O)[O-]", "hERG current change (%, negative = inhibition) at 10uM": 6.33}, {"smiles": "Cc1c(NC(=O)CN2C(=O)NC(C)(c3ccc(OC(F)F)cc3)C2=O)c(=O)n(-c2ccccc2)n1C", "note": "(centres unmarked)", "hERG current change (%, negative = inhibition) at 10uM": 20}, {"smiles": "Cc1cc(C)c(S(=O)(=O)N2CCOC2CNC(=O)C(=O)NCc2ccncc2)c(C)c1", "note": "(centres unmarked)", "hERG current change (%, negative = inhibition) at 10uM": 21}, {"smiles": "CCC1C(=NO)C(CC)C(c2ccccc2)NC1c1ccccc1", "note": "(centres unmarked)", "hERG current change (%, negative = inhibition) at 10uM": 4.66}, {"smiles": "CCOC(=O)CNC(=O)CNC(=O)Cn1ccc2ccccc2c1=O", "hERG current change (%, negative = inhibition) at 10uM": 9.64}, {"smiles": "CCOC(=O)c1c(NC(=O)CSc2c[nH]c3ccccc23)sc2c1CCC2", "hERG current change (%, negative = inhibition) at 10uM": 14.6}, {"smiles": "CCC(=O)Nc1nc2ccc([N+](=O)[O-])cc2s1", "hERG current change (%, negative = inhibition) at 10uM": 9.55}, {"smiles": "CC1=CC(=O)C=CC1(C)C(Cl)(Cl)Cl", "note": "(centres unmarked)", "hERG current change (%, negative = inhibition) at 10uM": -4.19}, {"smiles": "C=CCn1c(CNC(=O)c2cccs2)nnc1SCC(=O)Nc1ccc(C(=O)O)cc1", "hERG current change (%, negative = inhibition) at 10uM": 11.5}, {"smiles": "CCC(C)Nc1nc(N)c([N+](=O)[O-])c(NCCO)n1", "note": "(centres unmarked)", "hERG current change (%, negative = inhibition) at 10uM": 3.86}, {"smiles": "CC(c1nccs1)N(C)C(=O)CCc1nnc(CCc2ccccc2)o1", "note": "(centres unmarked)", "hERG current change (%, negative = inhibition) at 10uM": 0.72}, {"smiles": "CCOC(=O)N1CCC(NC(=O)CS(=O)Cc2nc(-c3ccc(C)cc3)oc2C)CC1", "note": "(centres unmarked)", "hERG current change (%, negative = inhibition) at 10uM": -2.4}, {"smiles": "COc1ccc(CN=Nc2cc(C)nc(NS(=O)(=O)c3ccccc3Cl)n2)cc1", "hERG current change (%, negative = inhibition) at 10uM": 15.8}, {"smiles": "Cc1ccc(CCCOC(=O)C[N+]2(C)CCOCC2)cc1.[I-]", "hERG current change (%, negative = inhibition) at 10uM": 5.11}, {"smiles": "COc1cc(/C=N/Nc2nc(N3CCCCC3)nc(N3CCCCC3)n2)ccc1OC(=O)c1ccco1", "hERG current change (%, negative = inhibition) at 10uM": 8.29}, {"smiles": "Cc1ccc(-c2nnc(SCC(=O)NC3CC3)o2)cc1", "hERG current change (%, negative = inhibition) at 10uM": -7.55}, {"smiles": "CCCCCOc1ccc(NC2=CC(=O)CCC2)cc1", "hERG current change (%, negative = inhibition) at 10uM": -12.6}, {"smiles": "O=C(Cc1c(F)cccc1Cl)NC1CCN(Cc2ccccc2)CC1", "hERG current change (%, negative = inhibition) at 10uM": -0.715}, {"smiles": "Cc1cc(NS(=O)(=O)c2ccc(NC(=O)CCCOc3ccccc3C)cc2)nc(C)n1", "hERG current change (%, negative = inhibition) at 10uM": 12.2}, {"smiles": "CCN(CC)C(=N)/C(C#N)=N/Nc1ccccc1", "hERG current change (%, negative = inhibition) at 10uM": -15.7}, {"smiles": "O=C(NCCN1CCOCC1)NC1(C(F)(F)F)Oc2ccccc2O1", "hERG current change (%, negative = inhibition) at 10uM": -3.53}, {"smiles": "Cc1cccc(NC(=O)Nc2nnc(N3CCCCC3C)s2)c1C", "note": "(centres unmarked)", "hERG current change (%, negative = inhibition) at 10uM": 15.8}, {"smiles": "CCOC(=O)C1(Cc2ccc(Cl)cc2)CCN(Cc2cn(CC)nc2C)CC1", "hERG current change (%, negative = inhibition) at 10uM": -67.7}, {"smiles": "CCS(=O)(=O)c1nc2ccccc2n1Cc1ccccc1Cl", "hERG current change (%, negative = inhibition) at 10uM": -8.8}, {"smiles": "CC(OC(=O)CCc1ccccc1)C(=O)Nc1ncc(Cl)cc1Cl", "note": "(centres unmarked)", "hERG current change (%, negative = inhibition) at 10uM": 4.35}]}]}
